About 14,000 (4.5%) of roughly 310,000 compounds showed an effect of 50% or more. Effects have a minus sign here. The list shows a part of the results.
The molecules below were run against human ether-à-go-go-related gene (hERG) potassium channel (human, UniProt Q12809) (assay: primary screen, population patch clamp on CHO cells stably expressing hERG).
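Note: peak tail current of the secondary pulse compared with the same well before compound.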

human ether-à-go-go-related gene (hERG) potassium channel, sequence (Q12809 whole entry, looked up): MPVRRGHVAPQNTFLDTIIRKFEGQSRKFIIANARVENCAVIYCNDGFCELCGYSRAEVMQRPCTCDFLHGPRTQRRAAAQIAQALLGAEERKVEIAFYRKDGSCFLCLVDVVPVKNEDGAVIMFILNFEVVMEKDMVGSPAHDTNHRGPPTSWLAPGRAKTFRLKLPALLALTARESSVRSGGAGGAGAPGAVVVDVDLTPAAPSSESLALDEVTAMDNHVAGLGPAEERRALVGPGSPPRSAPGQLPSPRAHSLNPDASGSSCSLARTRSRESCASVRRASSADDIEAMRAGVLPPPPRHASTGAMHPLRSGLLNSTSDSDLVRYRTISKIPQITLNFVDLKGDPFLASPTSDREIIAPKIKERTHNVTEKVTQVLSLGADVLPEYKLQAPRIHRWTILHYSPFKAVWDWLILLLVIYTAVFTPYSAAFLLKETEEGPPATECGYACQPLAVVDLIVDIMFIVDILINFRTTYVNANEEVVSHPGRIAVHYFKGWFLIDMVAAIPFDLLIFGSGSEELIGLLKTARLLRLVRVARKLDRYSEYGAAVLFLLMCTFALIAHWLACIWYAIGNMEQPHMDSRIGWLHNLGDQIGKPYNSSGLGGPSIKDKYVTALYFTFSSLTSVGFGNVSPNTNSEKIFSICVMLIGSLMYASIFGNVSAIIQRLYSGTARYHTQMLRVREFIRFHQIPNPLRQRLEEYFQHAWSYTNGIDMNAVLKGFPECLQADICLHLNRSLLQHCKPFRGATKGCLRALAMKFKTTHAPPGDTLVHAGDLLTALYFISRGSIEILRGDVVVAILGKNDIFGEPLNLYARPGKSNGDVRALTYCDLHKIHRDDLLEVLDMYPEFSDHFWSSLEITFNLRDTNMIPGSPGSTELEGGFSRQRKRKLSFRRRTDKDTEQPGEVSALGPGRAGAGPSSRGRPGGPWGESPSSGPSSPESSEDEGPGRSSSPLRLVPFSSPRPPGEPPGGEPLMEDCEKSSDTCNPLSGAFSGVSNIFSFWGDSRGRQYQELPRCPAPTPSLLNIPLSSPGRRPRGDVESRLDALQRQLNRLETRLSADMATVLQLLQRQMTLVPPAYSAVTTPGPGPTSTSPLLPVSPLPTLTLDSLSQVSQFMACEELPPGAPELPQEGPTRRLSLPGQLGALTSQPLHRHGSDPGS

Row | SMILES | hERG current change (%, negative = inhibition) at 10uM
1 | CCCc1cc(=O)oc2c3c(c(Cl)cc12)OCN(CCCO)C3 | 12.6%
2 | Cc1nnc(-c2cnn(C)c2N)n1CCCN1CCOCC1 | 29.1%
3 | COc1cccc(C(c2c(C)[nH]n(-c3ccccc3)c2=O)c2c(C)[nH]n(-c3ccccc3)c2=O)c1OC | -10.1%
4 | COc1ccccc1C(=O)NCc1ccncc1 | 0.175%
5 | CCOC(=O)CN1C(=O)N[C@@H](c2ccc(Br)cc2)C(C(=O)OC)=C1C | -4.26%
6 | CCCC(=O)NC(=S)Nc1ccc(NC(=O)C(C)C)c(OC)c1 | -17.7%
7 | COc1ccc(C(C)(C)C)cc1NC(=O)C1CC=CCC1C(=O)O (stereo not shown) | 6.32%
8 | CCN(CC)S(=O)(=O)c1ccc(NC(=O)C(C)N(c2ccccc2)S(C)(=O)=O)cc1 (stereo not shown) | -2.03%
9 | CCS(=O)(=O)N1CCC(N2CCC(C)CC2)CC1.O=C(O)C(=O)O | -9.03%
10 | CCCCNc1c2c3c(cccc3n(C)c1=O)C(=O)c1ccccc1-2 | -9.34%
11 | COC(=O)Nc1[nH]ncc1[N+](=O)[O-] | 27.2%
12 | CCOc1ccc(CN2CCC(n3nccc3NC(=O)c3ccccc3OC)CC2)cc1 | -82.8%
13 | COc1ccccc1C(=O)Nc1c[nH]c(=O)[nH]c1=O | 10.6%
14 | NS(=O)(=O)c1ccc(CCNC(=S)NC2CCCC2)cc1 | 11.2%
15 | CCOC(=O)/C(N=Nc1cc(C(=O)O)cc(C(=O)O)c1)=C(\O)CCl | -0.207%
16 | COCCCNC(=S)N(CCO)Cc1cc2cc3c(cc2[nH]c1=O)OCCO3 | 17%
17 | COc1cc(C2NC(=O)NC(c3ccccc3)=C2C(C)=O)ccc1OCC(=O)O (stereo not shown) | 1.92%
18 | C[C@H](NC(=O)Nc1ccc2c(c1)OCCO2)C(=O)O | 24%
19 | O=C(NCc1nc(-c2ccc(C(F)(F)F)cc2)no1)Nc1cc(Cl)cc(Cl)c1 | 7.7%
20 | CCOC(=O)c1c(C)c(-c2ccccc2)n(CC(=O)NCCC(C)C)c1C | 2.14%
21 | Nn1c(SCC(=O)Nc2ccc(OC(F)F)cc2)nnc(Cc2ccccc2)c1=O | -44.5%
22 | COc1cccc(/C=N/NC(=O)c2cccc3ccccc23)c1OC | 7.78%

Row | SMILES | hERG current change (%, negative = inhibition) at 10uM
23 | COc1cc(Cn2c(-c3nonc3N)nc3ccccc32)ccc1C | 2.95%
24 | COc1ccc(CCNC(=O)C(C)OC(=O)c2cccs2)cc1OC (stereo not shown) | -15.5%
25 | O=C(Cc1c(Cl)cccc1Cl)OCC(=O)N1CCN(C(=O)c2ccco2)CC1 | -14.9%
26 | Cc1cc(C(=O)NCc2ccccc2)no1 | 12.8%
27 | CCCC(c1nnnn1C(C)(C)C)N1CCN(Cc2ccccc2OC)CC1.Cl (stereo not shown) | -29.6%
28 | Cc1cc(C)c(NC(=O)C2CCCCN2C)c(C)c1.Cl (stereo not shown) | -7.82%
29 | CCC(C)c1ccc(NC(=S)N2CCN(C(=O)C3CCCO3)CC2)cc1 (stereo not shown) | -40.9%
30 | O=C(NN1C(=O)c2ccccc2NC1c1cccnc1)c1ccc([N+](=O)[O-])cc1 (stereo not shown) | -37.5%
31 | COc1ccc(C(=O)N2CCN(C3CCCCC3)CC2)cc1OC.O=C(O)C(=O)O | -73.6%
32 | Cc1ccc(C(=O)NC(C(=O)NC2CCCC2)c2ccccc2)cc1 (stereo not shown) | 15%
33 | Cc1sc(NC(=O)C2CSC3(C)CCC(=O)N23)nc1-c1ccc(F)cc1 (stereo not shown) | -23.5%
34 | O=C(CCCC(=O)N1CCCc2ccccc21)N1CCCc2ccccc21 | -29.2%
35 | CN(CC(=O)Nc1ccc(F)cc1)C(=O)CSc1nncs1 | 15.1%
36 | CCCN1/C(=C2/SC(=S)N(CC)C2=O)C=Cc2ccccc21 | 6.77%
37 | CCCCN(CC)C(=O)CSc1nc2n[nH]c(C)c2c(=N)n1-c1cccc(C)c1 | -26.8%
38 | Cc1nc(SCC(=O)N2CCCCC2)c2c(C)c(C)sc2n1 | -11.7%
39 | COc1ccccc1C(=O)NC(CCSC)C(=O)NCc1ccncc1 (stereo not shown) | -1.93%
40 | CC(=O)c1cccc(NC(=O)C2CCN(S(=O)(=O)c3cccs3)CC2)c1 | -0.951%
41 | COc1ccc(CN2CCN(C(=O)CCC(=O)Nc3nnc(C(F)(F)F)s3)CC2)cc1F | -27.9%
42 | Cc1ccc(C23OC(=O)C(C)(C)C2OC(=O)C3(C)C)cc1 (stereo not shown) | -3.28%
43 | CN1CCN(C(=O)CCCOc2cc(=O)n(C)c3ccccc23)CC1 | 0.874%
44 | Cc1cccn2c(=O)c3cc(C(=O)N4CCCC(C)C4)sc3nc12 (stereo not shown) | -0.439%

Row | SMILES | hERG current change (%, negative = inhibition) at 10uM
45 | COc1ccc(NC(=O)CSc2n[nH]c(-c3ccncc3)n2)c([N+](=O)[O-])c1 | -7.72%
46 | COc1cc(C)c(CNC2CCCCC2)cc1C | 0.374%
47 | CCSc1nc(CC)c2c(c1C#N)CCCC2 | -7.06%
48 | Cc1ccc(N(CC(=O)NCC2CCCO2)S(=O)(=O)c2ccccc2)c(C)c1 (stereo not shown) | 16%
49 | Cc1cc(C)n(CC(O)Cn2ccc3ccccc32)n1 (stereo not shown) | -12.5%
50 | C[C@@H](NC(=O)[C@@H]1Cc2ccccc2CN1)C(=O)NCc1ccco1 | 13.6%
51 | CC(C)CC(=O)Nc1cccc(-c2csc(-c3ccccc3)n2)c1 | 10.4%
52 | O=C(/C=C/c1ccco1)NC(=S)Nc1ccc(Cl)cn1 | 4.03%
53 | Cc1ccc(N2CC(C(=O)Nc3nnc(SCC(N)=O)s3)CC2=O)cc1C (stereo not shown) | 18.5%
54 | NS(=O)(=O)c1ccc(NC(=O)COC(=O)CCc2nc3ccccc3c(=O)[nH]2)cc1 | 1.4%
55 | Cc1cccc(N(CC(=O)Nc2ccc(-c3nc4ccc(C)cc4s3)cc2)S(C)(=O)=O)c1 | 17.4%
56 | C=CCNCCOCCOc1ccc(C)cc1Br.O=C(O)C(=O)O | -8.74%
57 | O=C(Nc1ccc(Cl)cc1)C1CCCC1 | 5.89%
58 | CC(=O)c1cc(-c2ccc(F)cc2)n(CCC(=O)Nc2cccnc2)c1C | 6.38%
59 | Cc1cccc(NC(=O)CCCN2C(=O)C3CC=CCC3C2=O)c1 (stereo not shown) | -3.87%
60 | COc1ccc2cc(CN(CCc3ccccc3)Cc3nnnn3CC3CCCO3)c(=O)[nH]c2c1 (stereo not shown) | -31.3%
61 | Cc1cc(-c2ccc(S(=O)(=O)N3CCN(c4cccc(C(F)(F)F)c4)CC3)s2)on1 | 8.72%
62 | CCC(C)NC(=O)C1CCN(C(=O)COc2ccc3c4c(c(=O)oc3c2C)CCCC4)CC1 (stereo not shown) | 8.37%
63 | O=C(NCCc1ccccc1)c1cccnc1 | 7.59%
64 | COc1ccc(CCNC(=O)C2CCN(C(=O)c3ccc(Cl)cc3)CC2)cc1 | -12.8%
65 | C/C(=N\NC(=O)c1csc(C)c1C)c1ccc(Cl)s1 | -0.674%
66 | Cc1cc(C)cc(NC(=S)N(CCN(C)C)Cc2cccs2)c1 | -25.1%

Row | SMILES | hERG current change (%, negative = inhibition) at 10uM
67 | CN(C)C=O.O=C(/C=C/c1cccc(F)c1)Nc1ccc(S(=O)(=O)Nc2ncccn2)cc1 | -9.37%
68 | O=C(N1CCOCC1)C12CC3CC(C1)CC(c1ccccc1)(C3)C2 | -14%
69 | COC(=O)Nc1ccc(Cc2ccncc2)cc1 | 12.6%
70 | O=C(COC(=O)c1ccc(Oc2ccccc2)cc1)Nc1nnc(-c2ccccc2)o1 | -0.509%
71 | O=C(O)CSc1nnc(-c2cccc(S(=O)(=O)N3CCCCC3)c2)o1 | 18.7%
72 | Cc1c(NC(=O)CC(C)C)c(=O)n(-c2ccccc2)n1C | 13.7%
73 | Cc1ccc(S(=O)(=O)CCC(=O)Nc2ccccc2Br)cc1 | 10.6%
74 | Cc1ccc(S(=O)(=O)NCC2CCC(C(=O)N3CCN(C)CC3)CC2)cc1 (stereo not shown) | 9.68%
75 | O=C(CCC(=O)NC12CC3CC(CC(C3)C1)C2)NC1CCCCC1 | 11.7%
76 | Cc1ccc(C)c(C(=O)OCC(=O)Nc2cccc(S(=O)(=O)NC3=NCCCCC3)c2)c1 | -17.5%
77 | O=C(Cc1ccc(Cl)cc1)Nc1ccccc1C(=O)N1CCCC1 | -5.15%
78 | O=C(CSc1nnc(CNC(=O)c2ccccc2)o1)Nc1nccs1 | 13.4%
79 | COc1ccc(S(=O)(=O)N2CCN(C3CCN(Cc4ccccc4)CC3)CC2)cc1 | -59.4%
80 | Cl.O=C1CSC(c2cccc([N+](=O)[O-])c2)N1CCN1CCCCC1 (stereo not shown) | -21.4%
81 | CCOC(=O)Nc1nc(-c2ccccc2)c(C(=O)c2ccc(Cl)cc2)s1 | 4.34%
82 | CC(NC(=O)Nc1ccc(Cl)cc1)C1CCCO1 (stereo not shown) | 7.05%
83 | CCC(C)NC(=O)CN(C)S(=O)(=O)c1ccc2c(c1)c(=O)n(C)c(=O)n2C (stereo not shown) | -6.34%
84 | Cc1c(Cl)cccc1Nc1nc(N)nc(CN2CCCCCC2)n1 | -74.6%
85 | CCOCCCn1c(=N)c(S(=O)(=O)c2ccc(C)cc2)cc2c(=O)n3cc(C)ccc3nc21 | 11.6%
86 | CCc1ccc(NC(=O)/C(C#N)=C/c2cc3ccc(C)cc3nc2N2CCOCC2)cc1 | -7.89%
87 | Cc1ccc(S(=O)(=O)c2cc3c(=O)n4ccccc4nc3n(C3CCCC3)c2=N)cc1 | 6.01%
88 | CCOC(=O)C(=CNc1ccccc1N1CCOCC1)C(=O)OCC | -13%

From publication PMC4336329 (PLoS ONE, 2015)
